Assay results taken from FireProtDB (doi:10.1093/protein/6.2.183).

Details: Gallus gallus; pH 5.5; 35 °C; GdnHCl; CD; acetate 0.1 M; reversible: yes

Which denaturant m value does the source give for Lysozyme C wild type (letters omitted) here?
The denaturant m value was 2.9 kcal/mol/M.

And the “denaturant midpoint (higher = more stable)” value?
Its value is 3.62 M.

And the unfolding free energy?
The unfolding free energy was 10.1 kcal/mol.
